# In the supplement of paper PMC9446081:
# Among all 39,000 compounds or so, about 220 (0.56%) showed activity. The list shows a part of the results.
# System: Escherichia coli K-12 BW25113
# Experiment: relative growth (OD600 normalised to plate interquartile mean) (fraction); higher = less growth inhibition, active = 0.2 or less
# Conditions: 50 µM; LB; incubation time: overnight (16-24 h)
# 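Further: static incubation at 37 °C against the wild-type strain, values averaged over two biological replicates.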
row,Compound,relative growth
1,O=C(C[C@@H]1C[C@H]2c3cc(NC(=O)C4CCOCC4)ccc3O[C@H]2[C@@H](CO)O1)NCc1ccc(Cl)cc1,inactive: 1.03
2,Cc1cccc(S(=O)(=O)N2C[C@@H](O)COC[C@@H]3O[C@@H](CC(=O)NCc4ccc5c(c4)OCO5)CC[C@H]32)c1,inactive: 0.996
3,CN1CCN(C(=O)C[C@H]2CC[C@@H]3[C@@H](COc4ccc(NC(=O)c5cscn5)cc4C(=O)N3C)O2)CC1,inactive: 1.02
4,COc1ccc(NC(=O)Nc2ccc3c(c2)CC(=O)N([C@@H](C)CO)C[C@H](C)[C@@H](CN(C)C(=O)Nc2cccc4ccccc24)O3)cc1,inactive: 1.05
5,C[C@H]1CN([C@@H](C)CO)C(=O)Cc2cc(NC(=O)c3ccncc3)ccc2O[C@H]1CN(C)C(=O)Nc1ccc2c(c1)OCO2,inactive: 0.917
6,COCC(=O)N1C[C@@H](C)[C@H](OC)CN(C)C(=O)c2cc(NC(=O)Nc3ccccc3)ccc2OC[C@@H]1C,inactive: 0.995
7,COc1ccccc1S(=O)(=O)N[C@@H]1C=C[C@H](CC(=O)N2CCOCC2)O[C@@H]1CO,inactive: 0.97
8,NC[C@H]1CC[C@H](C(=O)N2CCC(c3ccncc3)CC2)CC1,inactive: 1.03
9,C[C@@H]1CN([C@@H](C)CO)C(=O)c2cc(NS(=O)(=O)c3cn(C)cn3)ccc2O[C@@H]1CN(C)C(=O)Nc1ccc(F)cc1,inactive: 0.906
10,C[C@@H](NC(=O)C[C@H]1CC[C@@H](NC(=O)CN2CCOCC2)[C@@H](CO)O1)c1ccccc1,inactive: 1.02
11,CO[C@H]1CN(C)C(=O)c2ccc(NS(C)(=O)=O)cc2OC[C@H](C)N(C(=O)C2CCOCC2)C[C@@H]1C,inactive: 0.979
12,C[C@@H]1CN([C@@H](C)CO)S(=O)(=O)c2ccc(C3=CCCC3)cc2O[C@H]1CN(C)C(=O)Cc1ccncc1,inactive: 1.01
13,O=C(N[C@@H]1C=C[C@@H](CC(=O)N2CCOCC2)O[C@H]1CO)c1ccc2c(c1)OCO2,inactive: 0.952
14,O=C(C[C@@H]1CC[C@@H]2[C@H](COC[C@@H](O)CN2Cc2ccccc2F)O1)N[C@@H]1CCN(Cc2ccccc2)C1,inactive: 1.01
15,Cc1cc2cccc(C(=O)N[C@H]3CC[C@@H](N)CC3)c2o1,inactive: 0.989
16,CC(C)NC(=O)N(C)C[C@@H]1OCCCC[C@@H](C)Oc2ccc(NS(C)(=O)=O)cc2C(=O)N([C@@H](C)CO)C[C@H]1C,inactive: 1.02
17,CCO[C@H]1[C@H]2CC[C@@H]1N(C(=O)N(C)C)CCO2,inactive: 1.03
18,CN1C(=O)c2cc(NS(C)(=O)=O)ccc2OC[C@H]2O[C@H](CC(=O)N3CCOCC3)CC[C@H]21,inactive: 1.02
19,C[C@H](CO)N1C[C@H](C)[C@H](CN(C)C(=O)Nc2ccccc2)OCCCC[C@H](C)Oc2ccc(NC(=O)Nc3ccc(F)cc3)cc2C1=O,inactive: 1.07
20,Cc1noc(C)c1S(=O)(=O)Nc1ccc2c(c1)C(=O)N([C@H](C)CO)C[C@H](C)[C@@H](CN(C)CC1CC1)O2,inactive: 1.01
21,"CC(C)CCCC(C)C1CCC2C3CC(O)C4(O)CC(O)CCC4(C)C3CCC12C (stereo not drawn) [""CHOLESTAN-3beta,5alpha,6beta-TRIOL""]",inactive: 1.04

row,Compound,relative growth
1,CCS(=O)(=O)Nc1ccc2c(c1)C(=O)N(C)C[C@@H](OC)[C@@H](C)CN(Cc1nccs1)[C@@H](C)CO2,inactive: 0.984
2,CNCc1nc2ccsc2c(=O)[nH]1,inactive: 0.971
3,COc1ccc(S(=O)(=O)Nc2ccc3c(c2)C(=O)N([C@@H](C)CO)C[C@H](C)[C@@H](CN(C)S(C)(=O)=O)O3)cc1,inactive: 0.979
4,O=C(Nc1ccc2c(c1)[C@@H]1C[C@H](CC(=O)N3CCc4ccccc4C3)O[C@H](CO)[C@@H]1O2)C1CCOCC1,inactive: 0.983
5,Cc1cccc([C@@H](N)c2nccn2C)c1,inactive: 1.02
6,C[C@@H]1CN([C@H](C)CO)C(=O)Cc2cc(NC(=O)CCCCCC(=O)Nc3ccccc3N)ccc2O[C@H]1CN(C)C(=O)Nc1ccccc1,inactive: 0.991
7,C[C@H](CO)N1C[C@H](C)[C@H](CN(C)CC2CCOCC2)Oc2cc(-c3cccnc3)ccc2S1(=O)=O,inactive: 1
8,C[C@@H]1CN([C@H](C)CO)C(=O)Cc2cc(NC(=O)c3ccncc3)ccc2O[C@H]1CN(C)S(C)(=O)=O,inactive: 1.01
9,C[C@H](CO)N1C[C@H](C)[C@H](CN(C)C(=O)c2ccccc2)OCCCC[C@H](C)Oc2ccc(NC(=O)Nc3ccc(C(F)(F)F)cc3)cc2C1=O,inactive: 1.03
10,NCc1ccc(S(=O)(=O)N2CCOCC2)cc1,inactive: 0.968
11,C[C@@H]1CCCCO[C@H](CN(C)C(=O)C2CCCCC2)[C@@H](C)CN([C@H](C)CO)C(=O)c2cc(NS(=O)(=O)c3cccs3)ccc2O1,inactive: 1.03
12,O=C(C[C@@H]1CC[C@@H](NC(=O)Cc2ccccn2)[C@@H](CO)O1)NCCc1ccncc1,inactive: 0.981
13,COc1ccc(NC(=O)Nc2ccc3c(c2)C(=O)N([C@H](C)CO)C[C@@H](C)[C@@H](CN(C)Cc2ccc(Cl)c(Cl)c2)OCCCC[C@H](C)O3)cc1,inactive: 0.873
14,Cc1ccc(S(=O)(=O)N(C)C[C@@H]2OCCCC[C@H](C)Oc3ccc(NS(C)(=O)=O)cc3C(=O)N([C@@H](C)CO)C[C@H]2C)cc1,inactive: 0.993
15,Cc1cccc(NC(=O)CN2C(=O)CNC2=O)c1,inactive: 1
16,Cc1cccc(S(=O)(=O)N2C[C@@H](O)COC[C@H]3O[C@H](CC(=O)N4CCN(C)CC4)CC[C@@H]32)c1,inactive: 1.01
17,C[C@@H]1CCCCO[C@H](CN(C)Cc2ccc(C(F)(F)F)cc2)[C@@H](C)CN([C@@H](C)CO)C(=O)c2cc(NS(C)(=O)=O)ccc2O1,inactive: 0.965
18,C[C@@H]1CCCCO[C@@H](CN(C)S(C)(=O)=O)[C@@H](C)CN([C@H](C)CO)C(=O)c2cc(N(C)C)ccc2O1,inactive: 1.01
19,Cc1noc(C)c1NC(=O)Nc1ccc2c(c1)CC(=O)N([C@H](C)CO)C[C@H](C)[C@@H](CN(C)C(=O)NC(C)C)O2,inactive: 1.02
20,COc1cc(OC)cc(C(=O)Nc2nc(-c3ccc4c(c3)CCN4C(=O)CN3CCOCC3)cs2)c1,inactive: 1.01
21,c1cnc(-c2cn[nH]c2)cn1,inactive: 0.976

row,Compound,relative growth
1,C[C@@H]1CN([C@H](C)CO)C(=O)Cc2cc(NS(=O)(=O)c3ccc(F)cc3)ccc2O[C@H]1CN(C)C(=O)Nc1cccc2ccccc12,inactive: 1.02
2,C[C@]1(CC(=O)O)C(=O)N=C2C=CC=CN21,inactive: 0.996
3,C[C@H](NC(=O)[C@H]1N[C@H]2c3ccc(-c4ccc(C(=O)N(C)C)cc4)c(=O)n3C[C@H]2[C@@H]1CO)c1ccccc1,inactive: 0.968
4,CN1CCN(C(=O)C[C@H]2CC[C@H]3[C@H](COc4ccc(NC(=O)c5cscn5)cc4C(=O)N3C)O2)CC1,inactive: 0.921
5,C[C@H](CO)N1C[C@H](C)[C@H](CN(C)Cc2ccc(C(=O)Nc3ccccc3N)cc2)Oc2ccc(NS(=O)(=O)c3ccc(Cl)cc3)cc2CC1=O,inactive: 0.975
6,O=C(C[C@@H]1C=C[C@H](NC(=O)Cc2ccccn2)[C@H](CO)O1)NCCc1ccncc1,inactive: 1.02
7,CCC[C@@]1(CCc2ccccc2)CC(=O)[C@@H]([C@H](CC)c2cccc(NS(=O)(=O)c3ccc(C(F)(F)F)cn3)c2)C(=O)O1,inactive: 1.04
8,COc1ccc(CN(C)C[C@@H]2OCCCC[C@@H](C)Oc3ccc(NS(=O)(=O)c4ccc(F)cc4)cc3C(=O)N([C@H](C)CO)C[C@H]2C)cc1,inactive: 0.998
9,CC(C)NC(=O)N(C)C[C@H]1Oc2cc(C#Cc3ccccn3)ccc2S(=O)(=O)N([C@H](C)CO)C[C@@H]1C,inactive: 1.02
10,O=C(C[C@@H]1C=C[C@H](NS(=O)(=O)c2ccc(F)cc2)[C@H](CO)O1)N1CCC(Cc2ccccc2)CC1,inactive: 0.961
11,O=C1NC(=O)/C(=C\c2ccccc2)N1,inactive: 1.01
12,C[C@@H]1CN([C@H](C)CO)C(=O)c2cc(NC(=O)CCCCCC(=O)Nc3ccccc3N)ccc2O[C@@H](C)CCCCO[C@H]1CN(C)Cc1ccc(Cl)c(Cl)c1,inactive: 1.01
13,CC(C)NC(=O)N(C)C[C@@H]1OCCCC[C@H](C)Oc2ccc(NC(=O)C3CCCCC3)cc2C(=O)N([C@H](C)CO)C[C@@H]1C,inactive: 0.999
14,C[C@@H]1CCCCO[C@@H](CN(C)Cc2ccncc2)[C@@H](C)CN([C@@H](C)CO)C(=O)c2cc(NC(=O)Nc3ccc4c(c3)OCO4)ccc2O1,inactive: 1
15,COc1ccc(NC(=O)N(C)C[C@@H]2OCc3ccccc3-c3c(n(C)c4ccccc34)C(=O)N([C@H](C)CO)C[C@H]2C)cc1,inactive: 0.949
16,COc1cccc(C#Cc2ccc3c(c2)O[C@@H](CN(C)S(=O)(=O)c2ccccc2F)[C@H](C)CN([C@H](C)CO)S3(=O)=O)c1,inactive: 1.03
17,O=C(O)[C@@H]1CCCCO1,inactive: 0.994
18,C[C@H](CO)N1C[C@H](C)[C@H](CN(C)S(=O)(=O)c2cn(C)cn2)Oc2c(NS(C)(=O)=O)cccc2C1=O,inactive: 0.983
19,CN(C)CCCNC(=O)C[C@@H]1CC[C@@H]2[C@H](COC[C@@H](O)CN2C(=O)Nc2cc(Cl)cc(Cl)c2)O1,inactive: 0.972
20,C[C@@H]1CCCCO[C@@H](CN(C)Cc2ccncc2)[C@@H](C)CN([C@@H](C)CO)C(=O)c2cc(NC(=O)c3ccccc3)ccc2O1,inactive: 0.97
21,C[C@@H]1CN([C@H](C)CO)C(=O)Cc2cc(NC(=O)Nc3ccc4c(c3)OCO4)ccc2O[C@H]1CN(C)Cc1ccc(Oc2ccccc2)cc1,inactive: 0.991
